Patent US20230183352A1

B1: QP3711461 (anti-CLDN18.2/anti-PD-L1 bispecific antibody) (bispecific antibody, human IgG1, kappa)
heavy: QVQLVQSGAEVKKPGASVKVSCKASGYTFTSYIMHWVRQAPGQGLEWMGYINPYNDGTKYNEKFKGRVTMTRDTSTSTVYMELSSLRSEDTAVYYCARLGFTTRNAMDYWGQGTLVTVSS[here human IgG1 constant region without letters]GGGSGGGGSGGGGSGGGGSEVQLLESGGGLVQPGGSLRLSCAASGFTYGTYAMSWFRQAPGKGREGVACIDIYGRASYTDPVKGRFTISQDNSKNTLYLQMNSLKAEDTAVYYCAARDFGYCTASWVHEGFSRYWGQGTLVTVSS
light: DIVMTQSPDSLAVSLGERATINCKSSQSLLNSGNQKNYLAWYQQKPGQPPKLLIYGASTRESGVPDRFTGSGSGTDFTLTISSLQAEDVAVYYCQNDHSYPFTFGQGTKLEIKRTVAAPSVFIFPPSDEQLKSGTASVVCLLNNFYPREAKVQWKVDNALQSGNSQESVTEQDSKDSTYSLSSTLTLSKADYEKHKVYACEVTHQGLSSPVTKSFNRGEC
B2: QP14611463 (anti-Claudin 18.2 monoclonal antibody, humanized from QP207208) (antibody, human IgG1, kappa)
heavy: QVQLVQSGAEVKKPGASVKVSCKASGYTFTSYIMHWVRQAPGQGLEWMGYINPYNDGTKYNEKFKGRVTMTRDTSTSTVYMELSSLRSEDTAVYYCARLGFTTRNAMDYWGQGTLVTVSS[here human IgG1 constant region without letters]
light: B1 light

Molecular target: human Claudin 18.2 on HCC827-CLDN 18.2 cells (human), P56856
Assay: cell-based or functional assay

human Claudin 18.2 on HCC827-CLDN 18.2 cells (human), P56856, sequence (P56856 whole entry): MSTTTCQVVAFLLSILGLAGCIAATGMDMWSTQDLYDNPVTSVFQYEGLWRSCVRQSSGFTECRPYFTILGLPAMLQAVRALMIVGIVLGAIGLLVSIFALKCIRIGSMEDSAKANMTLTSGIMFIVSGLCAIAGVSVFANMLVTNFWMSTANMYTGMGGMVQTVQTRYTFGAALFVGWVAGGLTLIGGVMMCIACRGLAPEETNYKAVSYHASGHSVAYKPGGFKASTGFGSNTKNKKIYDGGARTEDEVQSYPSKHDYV

Row | Binder | Killing percentage at 0 nM antibody (PBMC-mediated killing) [%] | Killing percentage at 0.00051 nM antibody (PBMC-mediated killing) [%] | Killing percentage at 0.00256 nM antibody (PBMC-mediated killing) [%] | Killing percentage at 0.01280 nM antibody (PBMC-mediated killing) [%] | Killing percentage at 0.06400 nM antibody (PBMC-mediated killing) [%] | Killing percentage at 0.32000 nM antibody (PBMC-mediated killing) [%] | Killing percentage at 1.60000 nM antibody (PBMC-mediated killing) [%] | Killing percentage at 8.00 nM antibody (PBMC-mediated killing) [%] | Killing percentage at 40.00 nM antibody (PBMC-mediated killing) [%] | Killing percentage at 200.00 nM antibody (PBMC-mediated killing) [%] | Readings at 490 nm (LDH release, T + E + Ab) at 0 nM antibody (absorbance at 490 nm) | Readings at 490 nm (LDH release, T + E + Ab) at 0.000512 nM antibody (absorbance at 490 nm) | Readings at 490 nm (LDH release, T + E + Ab) at 0.00256 nM antibody (absorbance at 490 nm) | Readings at 490 nm (LDH release, T + E + Ab) at 0.0128 nM antibody (absorbance at 490 nm) | Readings at 490 nm (LDH release, T + E + Ab) at 0.064 nM antibody (absorbance at 490 nm) | Readings at 490 nm (LDH release, T + E + Ab) at 0.32 nM antibody (absorbance at 490 nm) | Readings at 490 nm (LDH release, T + E + Ab) at 1.6 nM antibody (absorbance at 490 nm) | Readings at 490 nm (LDH release, T + E + Ab) at 8 nM antibody (absorbance at 490 nm) | Readings at 490 nm (LDH release, T + E + Ab) at 40 nM antibody (absorbance at 490 nm) | Readings at 490 nm (LDH release, T + E + Ab) at 200 nM antibody (absorbance at 490 nm) | further results
1 | B1 | 0 | 0.709 | 6.2 | 2.66 | 11 | 27.3 | 41.5 | 42.3 | 38 | 37.3 | 0.393 | 0.414 | 0.477 | 0.414 | 0.501 | 0.632 | 0.747 | 0.743 | 0.707 | 0.697 | Readings at 490 nm (LDH release, T + E + Ab, second row) at 0 nM antibody (absorbance at 490 nm): 0.401; Readings at 490 nm (LDH release, T + E + Ab, second row) at 0.000512 nM antibody (absorbance at 490 nm): 0.392; Readings at 490 nm (LDH release, T + E + Ab, second row) at 0.00256 nM antibody (absorbance at 490 nm): 0.422; Readings at 490 nm (LDH release, T + E + Ab, second row) at 0.0128 nM antibody (absorbance at 490 nm): 0.425; Readings at 490 nm (LDH release, T + E + Ab, second row) at 0.064 nM antibody (absorbance at 490 nm): 0.48; Readings at 490 nm (LDH release, T + E + Ab, second row) at 0.32 nM antibody (absorbance at 490 nm): 0.624; Readings at 490 nm (LDH release, T + E + Ab, second row) at 1.6 nM antibody (absorbance at 490 nm): 0.749; Readings at 490 nm (LDH release, T + E + Ab, second row) at 8 nM antibody (absorbance at 490 nm): 0.768; Readings at 490 nm (LDH release, T + E + Ab, second row) at 40 nM antibody (absorbance at 490 nm): 0.73; Readings at 490 nm (LDH release, T + E + Ab, second row) at 200 nM antibody (absorbance at 490 nm): 0.728
2 | B2 | -12.9 | -3.19 | 1.89 | 2.24 | 3.66 | 17.4 | 33.5 | 34.7 | 39.8 | 37.9 | 0.288 | 0.37 | 0.413 | 0.416 | 0.428 | 0.544 | 0.681 | 0.691 | 0.734 | 0.718 | –
